According to the supplement of paper PMC4967469:
A lower IC50 marks a more sensitive line; fits outside the tested doses are given as limits. AUC, from the same fit, is the share of area under the viability curve across the 256-fold dose range: 1 means no effect, lower means more sensitive.

Compound: Cn1c(=O)n(-c2ccc(C(C)(C)C#N)cc2)c2c3cc(-c4cnc5ccccc5c4)ccc3ncc21 [NVP-BEZ235]
Assay: Viability of human cancer cell lines after 72 h of drug (GDSC screen)
Experimental: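 Human cancer cell lines in 384-well plates, medium with 10% serum, drug for 72 h over a 256-fold dose range (nine 2-fold or five 4-fold steps up to the top dose). Adherent lines were fixed and stained with the nucleic acid dye Syto60, suspension lines read with resazurin; signal relative to control wells, capped at 0 and 100%. One two-parameter sigmoid per drug and line, fitted in a mixed model over all curves with the slope shared within a line.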

Cell Line | AUC | IC50 [nM]
NCI-H1944 (lung adenocarcinoma, adherent, top dose 0.25 µM) | 0.759 | 92.6
NCI-H1975 (lung adenocarcinoma, adherent, top dose 0.25 µM) | 0.611 | 33
NCI-H1993 (lung adenocarcinoma, adherent, top dose 0.25 µM) | 0.976 | > 250
NCI-H2009 (lung adenocarcinoma, adherent, top dose 0.25 µM) | 0.744 | 82
NCI-H2023 (lung adenocarcinoma, adherent, top dose 2 µM) | 0.267 | 22.7
NCI-H2030 (lung adenocarcinoma, adherent, top dose 2 µM) | 0.28 | 26.9
NCI-H2052 (mesothelioma, adherent, top dose 0.25 µM) | 0.792 | 151
NCI-H2066 (small cell lung carcinoma, adherent, top dose 0.25 µM) | 0.923 | > 250
NCI-H2081 (small cell lung carcinoma, suspension, top dose 0.25 µM) | 0.921 | > 250
NCI-H2085 (lung adenocarcinoma, adherent, top dose 0.25 µM) | 0.585 | 27.2
NCI-H2087 (lung adenocarcinoma, semi-adherent, top dose 0.25 µM) | 0.846 | 204
NCI-H2110 (non-small cell lung carcinoma, adherent, top dose 0.25 µM) | 0.781 | 107
NCI-H2135 (non-small cell lung carcinoma, adherent, top dose 0.25 µM) | 0.991 | > 250
NCI-H2141 (small cell lung carcinoma, suspension, top dose 0.25 µM) | 0.956 | > 250
NCI-H2172 (non-small cell lung carcinoma, adherent, top dose 0.25 µM) | 0.831 | 243
NCI-H2227 (small cell lung carcinoma, semi-adherent, top dose 0.25 µM) | 0.759 | 98
NCI-H2291 (lung adenocarcinoma, adherent, top dose 0.25 µM) | 0.864 | > 250
NCI-H2342 (lung adenocarcinoma, adherent, top dose 0.25 µM) | 0.897 | > 250
NCI-H2347 (lung adenocarcinoma, adherent, top dose 0.25 µM) | 0.78 | 127
NCI-H2405 (lung adenocarcinoma, adherent, top dose 0.25 µM) | 0.679 | 52.3
NCI-H2444 (non-small cell lung carcinoma, adherent, top dose 0.25 µM) | 0.829 | 186
NCI-H2452 (mesothelioma, adherent, top dose 0.25 µM) | 0.668 | 50.7
NCI-H3122 (lung adenocarcinoma, adherent, top dose 0.25 µM) | 0.752 | 85.3
NCI-N87 (stomach, adherent, top dose 0.25 µM) | 0.824 | 248
NCI-SNU-1 (stomach, suspension, top dose 0.25 µM) | 0.967 | > 250
NCI-SNU-5 (stomach, suspension, top dose 0.25 µM) | 0.62 | 33.5

Cell Line | AUC | IC50 [nM]
NCI-SNU-16 (stomach, suspension, top dose 0.25 µM) | 0.901 | > 250
NEC8 (testis, adherent, top dose 0.25 µM) | 0.744 | 68.3
NH-12 (neuroblastoma, adherent, top dose 0.25 µM) | 0.775 | 111
NKM-1 (acute myeloid leukaemia, suspension, top dose 0.25 µM) | 0.78 | 106
NMC-G1 (glioma, adherent, top dose 0.25 µM) | 0.777 | 124
NOMO-1 (acute myeloid leukaemia, suspension, top dose 0.25 µM) | 0.59 | 28.5
NOS-1 (osteosarcoma, adherent, top dose 0.25 µM) | 0.625 | 37.4
NU-DUL-1 (B-cell lymphoma, suspension, top dose 0.25 µM) | 0.608 | 29
NUGC-3 (stomach, adherent, top dose 0.25 µM) | 0.506 | 16.2
NUGC-4 (stomach, adherent, top dose 0.25 µM) | 0.975 | > 250
NY (osteosarcoma, adherent, top dose 0.25 µM) | 0.832 | 157
OACM5-1 (oesophagus, semi-adherent, top dose 0.25 µM) | 0.917 | > 250
OACp4C (oesophagus, adherent, top dose 0.25 µM) | 0.728 | 80.2
OAW-28 (ovary, adherent, top dose 0.25 µM) | 0.91 | > 250
OAW-42 (ovary, adherent, top dose 0.25 µM) | 0.734 | 77.3
OC-314 (ovary, adherent, top dose 0.25 µM) | 0.711 | 55.6
OCI-AML2 (acute myeloid leukaemia, suspension, top dose 0.25 µM) | 0.87 | 139
OCI-AML3 (acute myeloid leukaemia, suspension, top dose 0.25 µM) | 0.735 | 64.7
OCI-AML5 (acute myeloid leukaemia, suspension, top dose 0.25 µM) | 0.847 | 160
OCI-LY7 (B-cell lymphoma, suspension, top dose 0.25 µM) | 0.453 | 12.1
OCI-LY-19 (B-cell lymphoma, suspension, top dose 0.25 µM) | 0.775 | 91.3
OCI-M1 (acute myeloid leukaemia, suspension, top dose 0.25 µM) | 0.867 | 141
OCUB-M (breast, adherent, top dose 0.25 µM) | 0.767 | 80.9
OCUM-1 (stomach, adherent, top dose 0.25 µM) | 0.784 | 119
OE19 (oesophagus, adherent, top dose 0.25 µM) | 0.857 | 247
OE21 (oesophagus, adherent, top dose 0.25 µM) | 0.405 | 7.79

Cell Line | AUC | IC50 [nM]
OE33 (oesophagus, adherent, top dose 0.25 µM) | 0.791 | 136
OMC-1 (cervix, adherent, top dose 0.25 µM) | 0.785 | 112
ONS-76 (medulloblastoma, adherent, top dose 0.25 µM) | 0.602 | 30.4
OPM-2 (myeloma, suspension, top dose 0.25 µM) | 0.778 | 82.8
OS-RC-2 (kidney, adherent, top dose 0.25 µM) | 0.518 | 17.9
OSC-19 (head and neck, adherent, top dose 0.25 µM) | 0.402 | 8.32
OSC-20 (head and neck, adherent, top dose 2 µM) | 0.253 | 21.1
OV-7 (ovary, adherent, top dose 0.25 µM) | 0.676 | 62.7
OV-17R (ovary, adherent, top dose 0.25 µM) | 0.792 | 167
OV-56 (ovary, adherent, top dose 0.25 µM) | 0.579 | 25.5
OV-90 (ovary, adherent, top dose 0.25 µM) | 0.431 | 9.58
OVCA420 (ovary, adherent, top dose 0.25 µM) | 0.783 | 144
OVCA433 (ovary, adherent, top dose 0.25 µM) | 0.664 | 47.1
OVCAR-3 (ovary, adherent, top dose 0.25 µM) | 0.885 | > 250
OVCAR-4 (ovary, adherent, top dose 0.25 µM) | 0.696 | 
OVCAR-5 (ovary, adherent, top dose 0.25 µM) | 0.629 | 38.2
OVCAR-8 (ovary, adherent, top dose 0.25 µM) | 0.624 | 32.9
OVISE (ovary, adherent, top dose 0.25 µM) | 0.635 | 41.8
OVK-18 (ovary, adherent, top dose 0.25 µM) | 0.511 | 16.8
OVKATE (ovary, adherent, top dose 0.25 µM) | 0.882 | > 250
OVMIU (ovary, adherent, top dose 0.25 µM) | 0.932 | > 250
OVTOKO (ovary, adherent, top dose 0.25 µM) | 0.561 | 23.9
P12-ICHIKAWA (T-cell lymphoblastic leukaemia, suspension, top dose 0.25 µM) | 0.88 | 161
P30-OHK (lymphoblastic leukaemia, suspension, top dose 0.25 µM) | 0.669 | 42.1
P31-FUJ (acute myeloid leukaemia, suspension, top dose 0.25 µM) | 0.921 | 225
P32-ISH (Burkitt lymphoma, suspension, top dose 0.25 µM) | 0.793 | 84.3
